{"source": "the antibiotic and cytotoxicity screens of Wong et al. (2023)", "note": "The list shows a part of the results."}
{"test_system": "S. aureus RN4220", "test": "growth inhibition call (relative growth <= 0.2)", "conditions": "50 µM"}
{"compound": "COc1ccccc1-c1ccc2c(c1)O[C@H](CN(C)C(=O)c1cccnc1)[C@H](C)CN([C@H](C)CO)S2(=O)=O", "growth inhibition call": "inactive"}
{"compound": "Cc1ccc(S(=O)(=O)N2C[C@H](O)COC[C@H]3O[C@@H](CC(=O)N4CCc5ccccc5C4)CC[C@@H]32)cc1", "growth inhibition call": "inactive"}
{"compound": "C[C@@H](CO)N1C(=O)[C@@H]2[C@H]3C(=O)OCC=C[C@H]3O[C@]23C=CCN(C(C)(C)C)C(=O)[C@@H]13", "growth inhibition call": "inactive"}
{"compound": "C[C@H](CO)N1C[C@H](C)[C@@H](CN(C)C(=O)Nc2ccnc(N3CCOCC3)c2)OCc2cnnn2CCCC1=O", "growth inhibition call": "inactive"}
{"compound": "COc1ccc(CN(C)C[C@@H]2OCCCC[C@H](C)Oc3ccc(NS(=O)(=O)c4ccccc4)cc3C(=O)N([C@@H](C)CO)C[C@H]2C)cc1", "growth inhibition call": "inactive"}
{"compound": "O=C(C[C@@H]1CC[C@H]2[C@@H](COC[C@H](O)CN2S(=O)(=O)c2ccccc2)O1)N[C@@H]1CCN(Cc2ccccc2)C1", "growth inhibition call": "inactive"}
{"compound": "COc1ccc(NC(=O)Nc2ccc3c(c2)C(=O)N([C@H](C)CO)C[C@H](C)[C@H](CN(C)Cc2ccc(Cl)c(Cl)c2)O3)cc1", "growth inhibition call": "inactive"}
{"compound": "COc1ccc(S(=O)(=O)N(C)C[C@@H]2Oc3ccc(NS(=O)(=O)c4cn(C)cn4)cc3C(=O)N([C@H](C)CO)C[C@@H]2C)cc1", "growth inhibition call": "inactive"}
{"compound": "Cc1ccc(S(=O)(=O)N(C)C[C@@H]2Oc3ccc(NS(=O)(=O)c4cccs4)cc3C(=O)N([C@@H](C)CO)C[C@H]2C)cc1", "growth inhibition call": "inactive"}
{"compound": "O=C(CCCCCNC(=O)OCc1ccc([C@H]2[C@H](C(=O)NCc3ccccc3)c3ccccc3C(=O)N2Cc2ccccc2)cc1)NO", "growth inhibition call": "inactive"}
{"compound": "COc1cccc(OC)c1OCCNCCO", "growth inhibition call": "inactive"}
{"compound": "O=C(C[C@@H]1C[C@@H]2c3cc(NC(=O)NC4CCCC4)ccc3O[C@@H]2[C@@H](CO)O1)NCc1ccc2c(c1)OCO2", "growth inhibition call": "inactive"}
{"compound": "Cc1noc(C)c1NC(=O)N[C@@H]1CC[C@@H](CC(=O)N2CCN(C)CC2)O[C@H]1CO", "growth inhibition call": "inactive"}
{"compound": "C[C@H]1CCCCO[C@H](CN(C)Cc2ccccc2)[C@@H](C)CN([C@@H](C)CO)C(=O)c2cc(NS(=O)(=O)c3ccccc3)ccc2O1", "growth inhibition call": "inactive"}
{"compound": "Cc1ccc(S(=O)(=O)Nc2cccc3c2O[C@H](CN(C)C(=O)Nc2cccc4ccccc24)[C@@H](C)CN([C@H](C)CO)C3=O)cc1", "growth inhibition call": "inactive"}
{"compound": "O=C(CN1CCOC1=O)N1CCC2(CCC(=O)N(CCCn3ccnc3)C2)CC1", "growth inhibition call": "inactive"}
{"compound": "COc1ccc(-c2cnc3c(c2)C(=O)N([C@H](C)CO)C[C@H](C)[C@H](CN(C)Cc2cccc(C(F)(F)F)c2)O3)cc1", "growth inhibition call": "inactive"}
{"compound": "O=C1[C@H]2C=NN[C@@H]2C(=O)N1Cc1ccccc1", "growth inhibition call": "inactive"}
{"compound": "C[C@@H]1CCCCO[C@@H](CN(C)C(=O)NC2CCCCC2)[C@H](C)CN([C@H](C)CO)C(=O)c2cc(NC(=O)c3ccncc3)ccc2O1", "growth inhibition call": "inactive"}
{"compound": "Cc1noc(C)c1NC(=O)Nc1ccc2c(c1)C(=O)N([C@@H](C)CO)C[C@H](C)[C@@H](CN(C)C(=O)Nc1ccc3c(c1)OCO3)OCCCC[C@H](C)O2", "growth inhibition call": "inactive"}
{"compound": "COc1ccc(S(=O)(=O)Nc2ccc3c(c2)C(=O)N([C@H](C)CO)C[C@@H](C)[C@H](CN(C)C(=O)CCC(F)(F)F)OCCCC[C@@H](C)O3)cc1", "growth inhibition call": "inactive"}
{"compound": "c1ccc([C@@H]2CCC[C@H](c3ccccc3)S2)cc1", "growth inhibition call": "inactive"}
{"compound": "Cc1noc(C)c1NC(=O)Nc1ccc2c(c1)C(=O)N([C@H](C)CO)C[C@@H](C)[C@@H](CN(C)C(=O)C1CCCCC1)OCCCC[C@H](C)O2", "growth inhibition call": "inactive"}
{"compound": "C[C@H]1CN([C@@H](C)CO)C(=O)c2c(c3ccccc3n2C)-c2ccccc2CO[C@H]1CN(C)Cc1ccc(C(=O)O)cc1", "growth inhibition call": "inactive"}
{"compound": "C[C@@H]1CN([C@H](C)CO)C(=O)CCCn2nncc2CO[C@H]1CN(C)S(=O)(=O)c1ccc(Cl)cc1", "growth inhibition call": "inactive"}
{"compound": "O=c1[nH]c(=O)c2ccccc2[nH]1", "growth inhibition call": "inactive"}
{"compound": "COc1ccc(CN(C)C[C@@H]2OCCCC[C@H](C)Oc3ccc(NC(=O)Nc4ccccc4)cc3C(=O)N([C@H](C)CO)C[C@H]2C)cc1", "growth inhibition call": "inactive"}
{"compound": "COCC(=O)N(C)C[C@H]1Oc2cc(C#CCN(C)C)ccc2S(=O)(=O)N([C@H](C)CO)C[C@H]1C", "growth inhibition call": "inactive"}
{"compound": "COc1ccc(S(=O)(=O)Nc2ccc3c(c2)C(=O)N([C@@H](C)CO)C[C@H](C)[C@@H](CN(C)S(C)(=O)=O)O3)cc1", "growth inhibition call": "inactive"}
{"compound": "CC1CN(c2c(F)c(F)c3c(=O)c(C(=O)O)cn(C4CC4)c3c2F)CC(C)N1", "note": "(stereo unspecified)", "growth inhibition call": "active"}
{"compound": "C[C@@H]1CCCCO[C@@H](CN(C)Cc2ccccc2)[C@H](C)CN([C@H](C)CO)C(=O)c2cc(NC(=O)Nc3ccc(C(F)(F)F)cc3)ccc2O1", "growth inhibition call": "inactive"}
